# In the supplement of paper PMC4166925:
# ± gives the standard deviation of the averaged measurements. In all, about 33,000 sequences were measured (“E-score (dimensionless, -0.5 to 0.5)”: median about -0.046, highest 2% from about 0.36 on). The list shows a part of the results.
# Tested on: T1, SpTbr T-box DNA-binding domain (GST fusion)
# T1 sequence: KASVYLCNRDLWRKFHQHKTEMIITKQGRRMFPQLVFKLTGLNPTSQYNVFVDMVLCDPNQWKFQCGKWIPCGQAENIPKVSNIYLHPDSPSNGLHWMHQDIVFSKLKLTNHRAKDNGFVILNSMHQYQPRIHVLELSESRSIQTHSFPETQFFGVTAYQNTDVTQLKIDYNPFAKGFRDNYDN
# Test: PBM E-score of 8-mer (E-score (dimensionless, -0.5 to 0.5)); Tbr is Tbrain of the sea star Patiria miniata (Pm) or the sea urchin Strongylocentrotus purpuratus (Sp); higher = stronger binding preference; most listed sequences are background and not binding sites
# Conditions: the construct has about 5 more residues each side
# In short: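 Primer extension turned Universal Agilent oligonucleotide arrays double-stranded. They were incubated with 200 nM protein in PBS (pH 7.5); the protein was a GST-fused Tbr T-box DNA-binding domain expressed in BL21 E. coli at 20 °C and purified on glutathione. Every ungapped 8-mer was scored from the scanned, quantified probe intensities, and the Universal PBM Analysis Suite gave each an enrichment E-score averaged over duplicate arrays.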
row,Sequence,PBM E-score of 8-mer
1,ACAGAACG,0.0698 ± 0.048
2,GATCGAAA,-0.0305 ± 0.023
3,GAAGATTC,-0.0539 ± 0.069
4,AAGAGTTC,-0.159 ± 0.034
5,GAAAGTTC,-0.00821 ± 0.013
6,ATAAGGTA,0.0128 ± 0.0056
7,TCCTTCGA,-0.122 ± 0.016
8,CCGCCTAA,-0.195 ± 0.042
9,GCTGCCGA,0.00876 ± 0.0086
10,GTACTCTA,-0.238 ± 0.074
11,ACAACGCT,0.177 ± 0.073
12,AGTAGGTA,-0.00286 ± 0.076
13,CTTTCGCC,-0.043 ± 0.078
14,GAACACTC,0.00577 ± 0.058
15,CGGTAGAC,-0.244 ± 0.01
16,AATTGCGA,0.239 ± 0.058
17,AACGTCCT,-0.1031 ± 0.00059
18,AGACAAGA,-0.16 ± 0.036
19,TAACACAA,0.256 ± 0.075
20,AGCTTGGA,-0.126 ± 0.093
21,ACAGGTCC,0.0582 ± 0.031
22,AATATCAA,-0.0408 ± 0.087

row,Sequence,PBM E-score of 8-mer
1,AGATCTTC,0.0938 ± 0.043
2,GATAGAAC,-0.107 ± 0.018
3,ATTGCTGA,-0.0995 ± 0.059
4,ATCCGGAC,-0.113 ± 0.026
5,CTGTAATA,0.061 ± 0.038
6,ATAAAAAT,-0.123 ± 0.069
7,CCCGGGGA,-0.179 ± 0.036
8,CTCGAGCC,-0.154 ± 0.069
9,AAGAACGC,-0.181 ± 0.096
10,ATTGGTTG,-0.192 ± 0.031
11,GAATGTAC,0.0332 ± 0.024
12,CCCCATTA,-0.157 ± 0.038
13,ATTTACAC,0.356 ± 0.0092
14,CCGGCCAG,-0.0406 ± 0.046
15,ATACTAGC,0.0611 ± 0.12
16,GATGACTA,-0.175 ± 0.027
17,CAATGTAC,-0.0989 ± 0.0078
18,GGATCAAC,-0.00787 ± 0.008
19,GATTTCCC,-0.123 ± 0.072
20,CGGCTAAC,0.0839 ± 0.024
21,ATTAGGAA,-0.173 ± 0.0093
22,AACGTTAA,-0.0537 ± 0.032

row,Sequence,PBM E-score of 8-mer
1,AGCGGACT,-0.233 ± 0.029
2,TAGAGATA,-0.0507 ± 0.0039
3,CCGACGTC,-0.0738 ± 0.039
4,CTATTCTC,-0.0236 ± 0.035
5,CTGGGCAC,-0.0696 ± 0.088
6,CATACTAA,-0.113 ± 0.018
7,ACTGATAA,-0.169 ± 0.073
8,ACTCCTCT,0.0856 ± 0.0041
9,CGGCTTAC,-0.0541 ± 0.015
10,AAGGAAAT,-0.0532 ± 0.0098
11,ATCTGTCC,-0.0512 ± 0.0045
12,CGCAGCAG,-0.0698 ± 0.043
13,GTGCCGAA,0.267 ± 0.0096
14,AGGCAGGA,-0.1 ± 0.01
15,AAGAACAG,-0.146 ± 0.019
16,AGTTGTAC,-0.102 ± 0.014
17,CGAGAGTC,-0.0698 ± 0.061
18,CAAAGAAG,-0.145 ± 0.064
19,CCATGGAG,-0.231 ± 0.015
20,GACAGCAC,0.0659 ± 0.049
21,AGCGGGTC,0.0862 ± 0.036
22,GACAGAAA,-0.144 ± 0.053

row,Sequence,PBM E-score of 8-mer
1,AGGAGGGG,0.0237 ± 0.0028
2,GCACATTA,0.0802 ± 0.043
3,AACTCGCA,0.251 ± 0.033
4,AAATTGAA,-0.155 ± 0.028
5,CTCACGAA,0.0622 ± 0.021
6,CCTAGCCA,-0.144 ± 0.018
7,ATATGGGA,-0.219 ± 0.059
8,AAGAGAAC,-0.148 ± 0.085
9,AGCGAATC,-0.151 ± 0.019
10,GATACTCC,-0.0707 ± 0.0073
11,GCCTAGAC,-0.0826 ± 0.058
12,CAGTATAA,-0.11 ± 0.025
13,AAACAGTC,0.0102 ± 0.034
14,TCGTTTCA,0.149 ± 0.09
15,CGAGTCGA,0.0653 ± 0.018
16,ACATTGCC,0.134 ± 0.024
17,CGGGAGAG,-0.0707 ± 0.1
18,GATACCAA,0.00881 ± 0.084
19,CTTGACGA,0.131 ± 0.038
20,CTCGCAAC,0.3 ± 0.043
21,GCCTACGC,-0.00188 ± 0.037
22,AATAATAG,-0.124 ± 0.0046

row,Sequence,PBM E-score of 8-mer
1,CATCGCGC,0.259 ± 0.032
2,AAAGTATG,-0.229 ± 0.12
3,ACGTGGTA,0.138 ± 0.0042
4,CAAAAAAG,-0.164 ± 0.076
5,ATTAATCC,-0.3717 ± 0.0021
6,CCCACGCA,-0.102 ± 0.046
7,TCTGCTAA,0.0482 ± 0.015
8,ACGTGGTC,-0.00463 ± 0.035
9,AGTTAATG,-0.0117 ± 0.043
10,ACTGGATA,-0.212 ± 0.0083
11,CTTGCTAC,-0.104 ± 0.024
12,ACACTTAA,0.336 ± 0.027
13,AACCCCGT,-0.0114 ± 0.02
14,ATGTAGGG,-0.355 ± 0.013
15,ACCGCACT,0.0559 ± 0.036
16,CCTATTTA,-0.143 ± 0.081
17,AGGAACCC,-0.3 ± 0.045
18,AATAACAG,0.12 ± 0.017
19,CAACAGGA,0.04179 ± 0.00038
20,ATACCCGC,0.0508 ± 0.029
21,CTACGGGA,-0.307 ± 0.03
